Measurements reported in PubChem BioAssay AID624202 (National Center for Advancing Translational Sciences (NCATS), 2012).
The campaign covered roughly 380,000 compounds. About 4,000 (1.1%) were called active. This list was built around the results that the source calls inconclusive (neither active nor inactive); the mix of calls is not that of the screen. The call rests on the fitted dose curve; in most records, active means well fitted activation curve with a large enough effect; inconclusive means small, poorly fitted or top-dose-only effect; inactive means no such curve, though single readings can be large or run the other way. Where the call is inconclusive, the potency comes from a doubtful curve fit.

assay: qHTS Assay to Identify Small Molecule Activators of BRCA1 Expression; settings: MCF7-BRCA1-FFLuc reporter, luminescence, 48 h; activation: at 46.1 µM (top of the series), scaled: vehicle 0%, 10 µM genistein 100% unless noted; further: nearly all actives have a fitted effect of over 80% in size
In short: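 MCF7-BRCA1-FFLuc cells, 2000/well in phenol-red-free MEM, attached 2 h then treated 48 h at 37 C. Luciferase luminescence read 15 min after reagent; normalized to genistein maximum activation (10microM) and DMSO, concentration-response fitted.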
Potency means the concentration at half of the fitted maximal effect; tags describe the fitted curve by direction and shape.

Which Potency does the source give for `O=C(NC(=S)Nc1ccc(N2CCOCC2)cc1)c1cccs1` here?
The Potency was inconclusive: 7.94 µM [activator, partial curve, poor fit].

With `CCOc1cccc(C(=O)NC(=S)Nc2ccc3c(c2)OCCO3)c1` as the molecule, how does the Potency read?
The Potency was inconclusive: 17.8 µM [activator, partial curve, poor fit].

With `Oc1ccc(N=Nc2n[nH]c(-c3ccccc3)n2)cc1` as the molecule, how does the Potency read?
The Potency was inconclusive: 1.58 µM [activator, partial curve, poor fit].

For `O=c1c2ccccc2nc2ccccn12`, which Potency is on record?
The Potency was inconclusive: 11.2 µM [activator, partial curve, poor fit].

Which Potency does the source give for `Cc1sc2nc3c4ccccc4c(NCc4ccco4)nn3c(=O)c2c1C` here?
Its Potency is inconclusive: 1.26 µM [activator, full curve, poor fit].

For `CC(=O)c1ccc(-n2c(C)c(C(C)=O)c3cc(O)ccc32)cc1`, which Potency is on record?
Its Potency is “inactive”.

With `CC1CCN(C(=O)c2cc(-c3ccc4c(c3)OCO4)on2)CC1` as the molecule, how does the Potency read?
The Potency was inconclusive: 0.631 µM [activator, full curve, poor fit].

For `CN(C)CCCN1c2ccc([N+](=O)[O-])cc2CCc2cc([N+](=O)[O-])ccc21`, which Potency is on record?
Its Potency is “inactive”.

For `Cc1ccc(OCC(=O)N/N=C\c2cccs2)c([N+](=O)[O-])c1`, which Potency is on record?
The Potency was inconclusive: 10 µM [activator, partial curve, poor fit].

With `Cc1cccc(-n2ncc3c(NCc4cccs4)ncnc32)c1` as the molecule, how does the Potency read?
The Potency was inconclusive: 2.51 µM [activator, partial curve, poor fit].

With `Cc1ccc(-c2cc(C(=O)NCc3cccs3)no2)cc1` as the molecule, how does the Potency read?
Its Potency is active: 4.47 µM.

Which Potency does the source give for `O=C(CNC(=O)c1ccc(F)cc1)c1ccc(Cl)cc1` here?
The Potency was inconclusive: 1.78 µM [activator, full curve, poor fit].

Which Potency does the source give for `CSc1ccc(CN(C)Cc2nc3cc(C(F)(F)F)ccc3c(=O)[nH]2)cc1` here?
Its Potency is “inactive”.

With `COc1cccc(COC(=O)Nc2ccccc2F)c1` as the molecule, how does the Potency read?
The Potency was inconclusive: 2.51 µM [activator, full curve, poor fit].

Which Potency does the source give for `Clc1ccc(-c2cc(CSc3ccccc3)on2)cc1` here?
Its Potency is active: 3.55 µM.

Which Potency does the source give for `CCC(=O)Nc1cccc(-c2nc3ccccc3o2)c1` here?
Its Potency is inconclusive: 35.5 µM [activator, single point].

With `CCOc1ccc(Nc2nc(Cc3nnc(SCC(=O)c4ccc(C)c(C)c4)o3)cs2)cc1` as the molecule, how does the Potency read?
The Potency was “inactive”.

Which Potency does the source give for `COc1ccc(C(=O)O/N=C(\N)c2cccc(C)c2)cc1OC` here?
The Potency was inconclusive: 14.1 µM [activator, partial curve, poor fit].

With `CC(NC(=O)NC(=O)c1ccc(Cl)cc1Cl)C1CC1` (centres undefined) as the molecule, how does the Potency read?
The Potency was inconclusive: 14.1 µM [activator, partial curve, poor fit].

With `C/C(NC(=O)c1ccccc1)=C1/C(=O)CC2C1C2(C)C` (centres undefined) as the molecule, how does the Potency read?
The Potency was active: 11.2 µM.

Which Potency does the source give for `Cc1ccc2oc(-c3ccc(NC(=O)CC(C)C)cc3)nc2c1` here?
Its Potency is inconclusive: 1.58 µM [activator, partial curve, poor fit].

With `CC1Cc2nc(SCC(=O)N3CCN(c4ccccc4)CC3)n(C)c(=O)c2S1` (centres undefined) as the molecule, how does the Potency read?
Its Potency is “inactive”.

For `CC(C)(C)c1ccc(C(=O)NC(=S)N2CCOCC2)cc1`, which Potency is on record?
The Potency was active: 10 µM.

Which Potency does the source give for `CNc1nc(N)c(C(=O)Nc2cc(C)on2)s1` here?
Its Potency is inconclusive: 7.94 µM [activator, partial curve, poor fit].

Which Potency does the source give for `COc1ccc(S(=O)(=O)Nc2cccc3cccnc23)c(N)c1` here?
Its Potency is “inactive”.

With `CNc1ccccc1C(=O)OCC(=O)c1ccccc1` as the molecule, how does the Potency read?
The Potency was inconclusive: 14.1 µM [activator, partial curve, poor fit].

With `Cc1c(N=C/C=C2/N(C)c3ccccc3C2(C)C)c(=O)n(-c2ccccc2)n1C` as the molecule, how does the Potency read?
Its Potency is “inactive”.

With `COc1ccc(-c2[nH]ncc2CN2CCC(N3CCSCC3)CC2)c(F)c1` as the molecule, how does the Potency read?
The Potency was inconclusive: 35.5 µM [activator, single point].

For `Cc1ccc(OCCCC(=O)N2CCOCC2)c(C)c1`, which Potency is on record?
The Potency was inconclusive: 10 µM [activator, partial curve, poor fit].

For `COc1ccccc1NC(=O)Nc1ccc(N2CCOCC2)cc1`, which Potency is on record?
Its Potency is active: 7.08 µM.

For `O=C(COc1ncnc2ccccc12)c1ccc(Cl)cc1`, which Potency is on record?
Its Potency is inconclusive: 12.6 µM [activator, partial curve, poor fit].

For `CCc1cc(CNC(=O)c2cc(COc3ccc(C)nc3)on2)on1`, which Potency is on record?
The Potency was inconclusive: 31.6 µM [activator, single point].

With `CC(=O)Nc1ccc(NC(=O)C(C)OC(=O)CNS(=O)(=O)/C=C/c2ccc(C)cc2)cc1` (centres undefined) as the molecule, how does the Potency read?
Its Potency is “inactive”.

For `N#CCC(=O)Nc1ccc(C(=O)OCC(=O)NC(=O)Nc2ccc3c(c2)OCCO3)cc1`, which Potency is on record?
Its Potency is inconclusive: 14.1 µM [activator, partial curve, poor fit].

For `O=c1cc(-c2ccccc2)oc2cc(O)cc(O)c12`, which Potency is on record?
Its Potency is inconclusive: 11.2 µM [activator, partial curve, poor fit].

With `Cc1ccc(N/N=C(\C#N)C(=N)N2CCCCCC2)cc1` as the molecule, how does the Potency read?
The Potency was “inactive”.

For `N#C/C(=C/c1ccc(OC(=O)c2ccc(Br)s2)cc1)c1nc2ccccc2[nH]1`, which Potency is on record?
The Potency was inconclusive: 10 µM [activator, partial curve, poor fit].

With `C/C(=N\N=C\c1ccc(N(C)C)cc1)c1cccc([N+](=O)[O-])c1` as the molecule, how does the Potency read?
Its Potency is inconclusive: 5.01 µM [activator, full curve, poor fit].

With `CCC(=O)Nc1cccc(NC(=S)NC(=O)c2cccs2)c1` as the molecule, how does the Potency read?
The Potency was inconclusive: 14.1 µM [activator, partial curve, poor fit].

With `COc1ccc(N2CCN(C(=O)CCS(=O)(=O)c3cc4c(cc3Cl)NC(=O)CO4)CC2)cc1` as the molecule, how does the Potency read?
The Potency was “inactive”.

Which Potency does the source give for `COC(=O)c1sc(NC(=S)NC(=O)c2ccccc2F)nc1C` here?
Its Potency is inconclusive: 12.6 µM [activator, partial curve, poor fit].

With `Cc1ccc(C(=O)Nc2ccc3c(c2)OCCO3)c(Cl)c1` as the molecule, how does the activation read?
The activation was inconclusive: -65.3% [activator].

Which Potency does the source give for `OC(c1ccc(F)c(F)c1)c1nc(-c2ccc3ccccc3c2)cs1` (centres undefined) here?
Its Potency is inconclusive: 15.8 µM [activator, single point].

For `O=C(Nc1ccc(N2CCN(C(=O)c3ccco3)CC2)cc1)c1ccco1`, which Potency is on record?
The Potency was “inactive”.
